{"source": "PubChem BioAssay AID504832", "about": "(National Center for Advancing Translational Sciences (NCATS), 2011)", "note": "Out of some 310,000 compounds screened, about 18,000 (5.8%) were called active. This list was built around the results that the source calls inconclusive (neither active nor inactive); the mix of calls is not that of the screen. The call rests on the fitted dose curve; in most records, active means well fitted inhibition curve with a large enough effect; inconclusive means small, poorly fitted or top-dose-only effect, or another doubt; inactive means no such curve, though single readings can be large or run the other way. Potencies of inconclusive entries are left out as doubtful fits. On the % scale 0 is the no-effect control and ±100 the full control effect; potency means the concentration at half of the fitted maximal effect; tags describe the fitted curve by direction and shape.", "data": [{"experiment": "Primary qHTS for delayed death inhibitors of the malarial parasite plastid, 48 hour incubation", "settings": "P. falciparum luciferase growth in erythrocytes; series mostly up to 28.7 µM; activity change, negative = inhibition: at the top concentration", "outline": "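Luciferase-expressing parasites in RBCs, 2% Hct / 0.1% parasitemia final; RPMI 1640 + 0.5% Albumax; 37 C, 5% CO2, one generation; luminescence read-out, lower signal = inhibition.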", "values": [{"smiles": "CCOc1cc(N2CCOCC2)c(OCC)cc1NC(=O)c1ccccc1", "Potency": "inconclusive [inhibitor, single point]"}, {"smiles": "COc1cc(/C=C2\\NC(=S)N(C)C2=O)ccc1OCc1ccccc1F", "Potency": "inconclusive [inhibitor, partial curve]"}, {"smiles": "COc1cccc(CN2CCN(CC(=O)NCCc3ccccc3)CC2)c1", "activity change, negative = inhibition": "inactive: -2.53%"}, {"smiles": "CCCCCCCN1C(Nc2ccccc2)=NC[C@@H]1CC(C)C", "Potency": "inconclusive [inhibitor, single point]"}, {"smiles": "CSc1cccc(CN2CCC(n3nccc3NC(=O)C3CC3)CC2)c1", "Potency": "inconclusive [inhibitor, single point]"}, {"smiles": "CCOC(=O)/C(=N\\Nc1ccc(Br)cc1)N1CCN(c2ccccc2OC)CC1", "Potency": "active: 14.7 µM"}, {"smiles": "Cc1ccc(-c2nn(C)c(=O)c3ccccc23)cc1CNC(=O)CSc1nc2ccccc2o1", "Potency": "inconclusive [inhibitor, full curve]"}, {"smiles": "O=C(O)c1cccc(N/N=C/c2sc(N3CCOCC3)nc2-c2ccccc2)c1", "Potency": "inconclusive [inhibitor, single point]"}, {"smiles": "Cc1ccc(C(=O)NCc2ccncc2)cc1S(=O)(=O)N1CCCCC1", "activity change, negative = inhibition": "inactive: -10.6%"}, {"smiles": "Cc1ccc(S(=O)(=O)CCC(=O)Nc2ccc(Br)cc2)cc1", "activity change, negative = inhibition": "inactive: -3.85%"}, {"smiles": "COC(=O)c1sccc1NC(=O)CCC1CCCCC1", "activity change, negative = inhibition": "inactive: 4.96%"}, {"smiles": "N#CCCNS(=O)(=O)c1ccc(C(=O)OCC(=O)Nc2ccc3c(c2)OCO3)cc1", "activity change, negative = inhibition": "inactive: -11%"}, {"smiles": "Cc1cc2occ(CC(=O)NCc3cccs3)c2cc1C(C)C", "activity change, negative = inhibition": "inactive: -26.1%"}, {"smiles": "CC(C)(C)c1cc(CN2CCN(CCC#N)CC2)cc(C(C)(C)C)c1O", "Potency": "inconclusive [inhibitor, single point]"}, {"smiles": "CN(CC1CCCCO1)C(=O)c1cc(COc2ccc(F)cc2Cl)on1", "note": "(stereo unspecified)", "Potency": "inconclusive [inhibitor, single point]"}, {"smiles": "CCOC(=O)c1c(NC(=O)CCl)sc(CN(C)C)c1-c1ccccc1", "Potency": "active: 13.1 µM"}, {"smiles": "O=C(Nc1ccc(Cl)cc1C(=O)Nc1ccncc1)c1ccco1", "Potency": "inconclusive [inhibitor, single point]"}, {"smiles": "O=C(/C=C/Nc1cccc(C(F)(F)F)c1)c1ccco1", "activity change, negative = inhibition": "inactive: 52.1%"}, {"smiles": "CCOC(=O)N1CCC(N(CCN(C)C)C(=S)Nc2cc(Cl)ccc2C)CC1", "activity change, negative = inhibition": "inactive: 27.7%"}, {"smiles": "COc1cccc(CNC(=O)CSc2nc3ccc(C)cc3[nH]2)c1", "activity change, negative = inhibition": "inactive: -9.71%"}, {"smiles": "CC(Oc1ccc(Cl)cc1)C(=O)N1CCN(C(=O)c2ccco2)CC1", "note": "(stereo unspecified)", "activity change, negative = inhibition": "inactive: -22.6%"}, {"smiles": "Cc1cccn2c(=O)c3cc(C(=O)NCCC4=CCCCC4)n(C)c3nc12", "Potency": "inconclusive [inhibitor, partial curve, poor fit]"}, {"smiles": "CCn1c(SCC(=O)N2CCCC2)nc2c(c1=O)SCC2", "Potency": "inconclusive [inhibitor, full curve, poor fit]"}, {"smiles": "Cc1nn(Cc2ccccc2)c(C)c1NC(=O)c1cc(-c2ccco2)on1", "Potency": "inconclusive [inhibitor, single point]"}, {"smiles": "COc1ccc(NC(=O)CNS(=O)(=O)c2ccc3nc(C)sc3c2)c(OC)c1", "activity change, negative = inhibition": "inactive: 15%"}, {"smiles": "COc1ccc(-n2c(SCC(=O)C(C)(C)C)nc3c(sc(=S)n3-c3ccccc3)c2=O)c(OC)c1", "Potency": "active: 2.08 µM"}, {"smiles": "Cc1ccc(S(=O)(=O)/C(C#N)=C/c2c(N3CC(C)OC(C)C3)nc3c(C)cccn3c2=O)cc1", "note": "(stereo unspecified)", "Potency": "inconclusive [inhibitor, single point]"}, {"smiles": "CCCCCCCCCCCCCCCC(O)C(N)CO", "note": "(stereo unspecified)", "Potency": "inconclusive [inhibitor, single point]"}, {"smiles": "COc1ccc(Cn2c(-c3ccco3)nc3oc4cc(OC)ccc4c(=O)c3c2=O)cc1", "Potency": "inconclusive [inhibitor, full curve, poor fit]"}, {"smiles": "COc1cccc(CNC(=O)CCC2CCCN(C(=O)c3ccc(C)nc3)C2)c1", "note": "(stereo unspecified)", "activity change, negative = inhibition": "inactive: 17.7%"}, {"smiles": "Cc1ccc(Cn2c(C3CCCN3c3nc(C)cs3)nc3cc(C(F)(F)F)ccc32)cc1", "note": "(stereo unspecified)", "Potency": "inconclusive [inhibitor, partial curve, poor fit]"}, {"smiles": "COc1cc(-c2cc(C(=O)O)c3cc4c(cc3n2)OCCO4)cc(OC)c1OC", "Potency": "inconclusive [inhibitor, single point]"}, {"smiles": "Cc1ccc(S(=O)(=O)NCc2ccc(C(=O)N3CCN(c4ccccn4)CC3)cc2)cc1", "Potency": "inconclusive [inhibitor, single point]"}, {"smiles": "Cc1ccc(C(=O)NCC(c2ccco2)N2CCOCC2)cc1", "note": "(stereo unspecified)", "Potency": "inconclusive [inhibitor, single point]"}, {"smiles": "O=C(O)c1cc(-c2ccco2)[nH]n1", "activity change, negative = inhibition": "inactive: 20.2%"}, {"smiles": "COc1ccccc1C(=O)NCC(=O)NNc1ncnc(N)c1[N+](=O)[O-]", "activity change, negative = inhibition": "inactive: 15.5%"}, {"smiles": "CC(CC(=O)O)CC(=O)Nc1cc([N+](=O)[O-])ccc1O", "note": "(stereo unspecified)", "Potency": "inconclusive [inhibitor, single point]"}, {"smiles": "Cc1cccc(CN2CCN(c3nc4nonc4nc3NC3CC3)CC2=O)c1", "Potency": "inconclusive [inhibitor, full curve, poor fit]"}, {"smiles": "Clc1ccc(CSc2ccc(-c3ccccn3)nn2)cc1", "Potency": "inconclusive [inhibitor, single point]"}, {"smiles": "O=c1c2c3nc4ccccc4nc3n(/N=C/c3cccs3)c2ncn1-c1ccccc1", "Potency": "inconclusive [inhibitor, single point]"}, {"smiles": "CCCCOc1c(Br)cc(CNCCCN2CCOCC2)cc1OC", "Potency": "active: 13.1 µM"}, {"smiles": "CC(C)(C)OC(=O)N1CCCN(C(=O)Nc2ccc(C(F)(F)F)cc2)CC1", "Potency": "inconclusive [inhibitor, partial curve]"}, {"smiles": "COc1ccc(C(C)=O)cc1COC(=O)c1ccc(OCc2c(C)noc2C)cc1", "Potency": "inconclusive [inhibitor, partial curve]"}, {"smiles": "O=c1oc2ccccc2n1CSc1nc2ccccc2s1", "activity change, negative = inhibition": "inactive: 264%"}, {"smiles": "COc1ccccc1/C=N/NC(=O)NC12CC3CC(CC(C3)C1)C2", "Potency": "inconclusive [inhibitor, partial curve, poor fit]"}, {"smiles": "CCn1nc(C(=O)Nc2cc(Cl)ccc2-n2cncn2)c2ccccc2c1=O", "Potency": "inconclusive [inhibitor, single point]"}]}]}
